# Experimental data reported in PubChem BioAssay AID488969 (Vanderbilt High Throughput Screening Facility, 2010).
# Whole data set: some 110,000 compounds, median “z-score” near -0.1, cut for the highest 2% near 2. This is one part of the list. The source made the active and inactive calls.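 Rule for the calls: active = z-score in the third read window above 3 or below -3; inactive = the rest.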
# Target: Metabotropic glutamate receptor 8 (Rattus norvegicus) (UniProt P70579)
# Assay: mGluR8 Gi/Go-coupled signaling modulation – cell-based, rat, thallium flux, HTS, primary screen (AID 488969)
# Conditions: HEK293 rat mGluR8, GIRK (G protein-gated inwardly rectifying potassium channel) thallium flux, FluoZin2; at 10 µM; stronger effect = higher value; submaximal glutamate (EC20) added with thallium
# Chain of UniProt P70579 (P70579 whole entry, looked up): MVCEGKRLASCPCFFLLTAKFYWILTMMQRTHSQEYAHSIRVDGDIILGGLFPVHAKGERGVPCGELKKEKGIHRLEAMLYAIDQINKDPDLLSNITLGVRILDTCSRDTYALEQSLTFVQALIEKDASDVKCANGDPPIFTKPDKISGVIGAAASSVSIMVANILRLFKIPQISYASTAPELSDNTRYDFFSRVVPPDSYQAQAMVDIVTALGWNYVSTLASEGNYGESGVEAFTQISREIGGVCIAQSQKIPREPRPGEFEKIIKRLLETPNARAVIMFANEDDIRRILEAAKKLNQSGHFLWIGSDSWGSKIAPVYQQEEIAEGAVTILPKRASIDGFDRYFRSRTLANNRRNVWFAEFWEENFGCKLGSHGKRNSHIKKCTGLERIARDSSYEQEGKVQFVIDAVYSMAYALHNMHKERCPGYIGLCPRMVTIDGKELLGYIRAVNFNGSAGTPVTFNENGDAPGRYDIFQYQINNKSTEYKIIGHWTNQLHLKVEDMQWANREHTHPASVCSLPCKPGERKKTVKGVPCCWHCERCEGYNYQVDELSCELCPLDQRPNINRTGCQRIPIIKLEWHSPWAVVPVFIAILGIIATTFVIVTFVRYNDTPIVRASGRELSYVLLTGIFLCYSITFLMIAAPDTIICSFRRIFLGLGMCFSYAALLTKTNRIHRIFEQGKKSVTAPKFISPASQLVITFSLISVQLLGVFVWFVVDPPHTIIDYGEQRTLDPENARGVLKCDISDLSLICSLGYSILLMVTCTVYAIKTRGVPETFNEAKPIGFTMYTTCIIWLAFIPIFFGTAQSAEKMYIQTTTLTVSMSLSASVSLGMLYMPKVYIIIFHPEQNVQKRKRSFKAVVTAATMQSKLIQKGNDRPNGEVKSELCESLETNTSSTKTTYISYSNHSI
row,Compound,z-score
1,CN1CCN(c2ccc([N+](=O)[O-])cc2/C=N/NC(=O)c2ccc(F)cc2)CC1,-0.503
2,CCOc1cccc(CNc2ccc(O)cc2)c1OCc1ccccc1Cl,-0.208
3,Cc1noc2ncc(C(=O)c3cc(F)ccc3O)cc12,0.257
4,CCN1C(=O)c2ccc(C(=O)O)cc2C1=O,-0.183
5,CNC(=S)Nc1cc(OC)ccc1OC,-0.117
6,Cc1ccccc1OCC(=O)N/N=C1\SCC(=O)N1Cc1ccccc1,-0.0816
7,CCN(CC)CCOC(=O)c1ccc(Cl)cc1,-0.0542
8,O=C(Nc1ccccc1C(=O)NCc1cccnc1)c1ccco1,0.171
9,CCCc1nc2ccccc2c(=O)n1/N=C/c1c(C)[nH]n(-c2ccc(C)cc2)c1=O,1.38
10,COC(=O)CC1C(=O)NCCN1C(=S)NC(=O)c1ccccc1[N+](=O)[O-] (configuration not stated),-0.0299
11,O=C(CNC(=O)c1ccc(Br)o1)Nc1cccc(-c2cnc3ccccc3n2)c1,-0.0702
12,O=C(Cn1c(=O)sc2ccccc21)Nc1ccccc1,-0.129
13,COC(=O)C1=C(C)C(c2cccs2)NC(=O)N1C (configuration not stated),0.144
14,O=C1CC(c2ccco2)CC(O)=C1C=NCCN1CCNCC1 (configuration not stated),-0.022
15,COc1ccccc1/C=C/C=N/N1CCN(c2ccccn2)CC1,-0.0475
16,Cc1ccc2c(c1)NC(=O)C(CC(=O)NCCCN1CCCCC1C)O2 (configuration not stated),1.73
17,CC(=O)N1CCN(c2ccc(NCc3cccs3)cc2)CC1,0.699
18,COC(=O)c1cc(Br)c(=O)n(-c2nccs2)c1,-0.546
19,CCSc1nc(C)cc(Oc2ccc(=O)n(C)n2)n1,-0.125
20,CCCc1nnc(NC(=O)Cn2cnc3ccccc3c2=O)s1,0.0834
21,COc1ccccc1C(=O)Nc1ccc(S(=O)(=O)N2CCc3ccccc32)cc1,0.187
22,O=C(CN1C(=O)CSc2ccccc21)NC1CCCC1,-0.0638
23,O=C(Cn1cnc2c(nnn2Cc2ccccc2F)c1=O)N1CCN(c2ccccc2)CC1,0.337
24,COc1ccc2nc3ccccc3nc2c1NC(=O)c1ccc(Cl)cc1,-0.0793

row,Compound,z-score
1,Cc1cccc(NC(=S)N/C(=N/S(=O)(=O)c2ccccc2)c2ccccc2)c1,1.97
2,CSCCC(NC(=O)c1ccccc1)C(=O)N/N=C(\C)c1ccccc1 (configuration not stated),-0.429
3,COc1cccc(/C=N/NC(=O)c2ccc(COc3ccc(Cl)cc3Cl)o2)c1,0.119
4,COc1ccc(Cn2nnnc2C(C(C)C)N(Cc2ccco2)Cc2cccs2)cc1 (configuration not stated),-0.42
5,Cc1ccc2cc3c(NC(=O)C(C)C)nn(C)c3nc2c1,0.352
6,COC(=O)c1ccc(Cn2nc(C)cc2C)cc1,0.0799
7,Cc1ccc(CN2C(=O)CCC2C(=O)NCC2CCCO2)cc1 (configuration not stated),-0.456
8,Cc1ccc2cccc(NC(=O)C(F)(F)F)c2n1,0.599
9,CN(C)S(=O)(=O)c1cccc(-c2nnc(-c3ccccc3)o2)c1,-0.515
10,Cc1ccc(O)c(C(=O)c2cc(C#N)c(=O)n(-c3c(C)n(C)n(-c4ccccc4)c3=O)c2)c1,0.0458
11,CCc1ccc(NC2CC(=O)N(c3ccc(OC)cc3OC)C2=O)cc1 (configuration not stated),0.562
12,CC(CCc1ccccc1)NC(=O)/C=C/c1ccccc1 (configuration not stated),0.369
13,Fc1ccc(CNc2ncnc3c2cnn3-c2ccccc2)cc1,0.365
14,FC(F)(F)c1cnc2c(c1)Nc1ccccc1S2,0.635
15,Cc1ccc(NS(=O)(=O)c2cc([N+](=O)[O-])ccc2NNC(=S)Nc2cccc(Cl)c2)c(C)c1,-0.12
16,Cc1cc(C)n(/N=C/c2cccc(O)c2)c(=O)c1C(N)=O,-0.999
17,COc1cc(/C=c2\sc3n(c2=O)C(c2ccccc2)C(c2ccccc2)=NN=3)ccc1O (configuration not stated),-0.0197
18,CCOC(=O)C1=C(C)NC(=O)NC1c1c(OCC(=O)N2CCCCC2)ccc2ccccc12 (configuration not stated),-1.27
19,COc1cc(NS(=O)(=O)c2ccc(N/C=C(\C=O)c3nc4cc(Cl)ccc4o3)cc2)nc(OC)n1,-0.434
20,Cc1n[nH]c(C)c1N1C(=O)c2cccc3c(Br)ccc(c23)C1=O,1.69
21,O=C1CC(c2ccc(Cl)cc2)CC(O)=C1C=NCc1ccc(Cl)c(Cl)c1 (configuration not stated),-0.159
22,COc1ccc(-c2ccnc3nc(N4CCN(c5ccccc5)CC4)nn23)cc1,0.149
23,COc1ccc(Cc2nnc(SCC(=O)c3cccc([N+](=O)[O-])c3)n2C)cc1,-0.398
24,O=S(=O)([O-])CCC[n+]1c(SCCCS(=O)(=O)O)sc2ccc(Cl)cc21,-0.198

row,Compound,z-score
1,COc1ccc(-c2cn(-c3ccc(OC)cc3)c3[n+]2-c2ccccc2CC3)cc1,0.445
2,C=C(C)CSc1nc2ncc(Cl)cc2[nH]1,-0.0787
3,C(=N\c1nccs1)/c1cccnc1,-0.869
4,COc1ccc(Cl)cc1NS(=O)(=O)c1cc(Cl)ccc1OC,0.315
5,CCOc1ccccc1N1C(=O)CC(Sc2ncccc2C(=O)O)C1=O (configuration not stated),0.442
6,COc1ccc(CCNc2c(C)c(C)nc3ncnn23)cc1,-0.00936
7,CCCCCCC(C)n1[nH]c(=O)c2c(C)cc(=O)[nH]c21 (configuration not stated),-0.224
8,Cc1ccc2nc3c(c(Nc4ccc5c(c4)OCCO5)c2c1)CCC3,-0.499
9,COc1ccc(Nc2cc(C)nc3ncnn23)c(OC)c1,-0.0948
10,CCCn1c(SCC(=O)NCCc2ccccc2)nnc1-c1ccccn1,-0.348
11,CCOC(=O)c1c(N=CN(C)C)c(C#N)n2c1CCC2,0.947
12,CS(=O)(=O)N(CC(=O)N/N=C/c1cccc2c1OCCO2)c1ccccc1Br,-0.169
13,CCOC(=O)/C=C1\SCC(=O)N1CC(O)CN1C(=O)CS/C1=C\C(=O)OCC,0.722
14,O=c1nc2scc(-c3ccccc3)n2c2ccccc12,-0.169
15,CC(=O)N(C)c1ccc(NC(=O)C(F)(F)F)cc1,-0.055
16,O=C(Nc1ccc2nc(C3CC3)n(Cc3ccc(F)cc3)c(=O)c2c1)c1ccco1,-0.705
17,Cc1nc(C(=O)Nc2ccc(F)cc2)nn1-c1ccc([N+](=O)[O-])cc1,0.0551
18,COc1ccc(CCN=C(N)NS(=O)(=O)c2ccccc2)cc1OC,-0.155
19,CCOC(=O)c1c(/N=C/c2ccccc2O)sc2c1CCC2,-0.0903
20,CCC(=O)NCCNc1ccc([N+](=O)[O-])cn1,-1.5
21,O=C(Nc1cccc(O)c1)c1cc(S(=O)(=O)N2CCCC2)ccc1Cl,-0.113
22,O=C(NC(=S)Nc1nc2c(s1)CCCC2)c1ccccc1,active: 4.37
23,O=C(CN1C(=O)C2CCCCC2C1=O)Nc1nc(-c2ccccn2)cs1 (configuration not stated),0.425
24,NC(=O)Cn1c(=O)n(Cc2ccco2)c(=O)c2c3c(sc21)CCCCC3,0.0434
